Assay results published in the supplement of paper PMC8728848.
The list shows a part of the results.

What was measured:
Assay in all cases: glycan array binding signal (z-score within array); higher = stronger binding
Conditions in all cases: glycan notation: IUPAC condensed, linker removed
[1] = target: Neu5Ac(a2-3)Gal(b1-3)GalNAc(b1-3)Gal(b1-4)GlcNAc
In short: (§1)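 Arrays were curated from the Consortium for Functional Glycomics database, 3228 in total, and kept only where the protein sequence was available. Binding is expressed as a within-array Z-score. This score was averaged across arrays of the same protein sequence at different concentrations or buffers and across linkers, and negative values can be read as non-binding.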

[2] = target: Neu5Ac(a2-3)Gal(b1-3)GalNAc(b1-4)[Neu5Ac(a2-3)]Gal(b1-4)Glc
In short: as §1

[3] = target: Neu5Ac(a2-3)Gal(b1-3)GalNAc6S
In short: as §1

[4] = target: Neu5Ac(a2-3)Gal(b1-3)GlcNAc
In short: as §1

[5] = target: Neu5Ac(a2-3)Gal(b1-3)GlcNAc6S
In short: as §1

[6] = target: Neu5Ac(a2-3)Gal(b1-3)[Fuc(a1-4)]GlcNAc
In short: as §1

[7] = target: Neu5Ac(a2-3)Gal(b1-3)[Fuc(a1-4)]GlcNAc(b1-3)Gal(b1-4)[Fuc(a1-3)]GlcNAc
In short: as §1

[8] = target: Neu5Ac(a2-3)Gal(b1-3)[Neu5Ac(a2-3)Gal(b1-4)]GlcNAc
In short: as §1

[9] = target: Neu5Ac(a2-3)Gal(b1-3)[Neu5Ac(a2-6)]GalNAc
In short: as §1

[10] = target: Neu5Ac(a2-3)Gal(b1-4)Glc
In short: as §1

[11] = target: Neu5Ac(a2-3)Gal(b1-4)GlcNAc
In short: as §1

[12] = target: Neu5Ac(a2-3)Gal(b1-4)GlcNAc(b1-2)Man(a1-3)[Neu5Ac(a2-3)Gal(b1-4)GlcNAc(b1-2)Man(a1-6)]Man(b1-4)GlcNAc(b1-4)GlcNAc
In short: as §1

[13] = target: Neu5Ac(a2-3)Gal(b1-4)GlcNAc(b1-3)Gal(b1-4)GlcNAc
In short: as §1

[14] = target: Neu5Ac(a2-3)Gal(b1-4)GlcNAc(b1-3)Gal(b1-4)GlcNAc(b1-3)Gal(b1-4)GlcNAc
In short: as §1

[15] = target: Neu5Ac(a2-3)Gal(b1-4)GlcNAc(b1-3)Gal(b1-4)[Fuc(a1-3)]GlcNAc
In short: as §1

[16] = target: Neu5Ac(a2-3)Gal(b1-4)GlcNAc6S
In short: as §1

[17] = target: Neu5Ac(a2-3)Gal(b1-4)[Fuc(a1-3)]GlcNAc
In short: as §1

[18] = target: Neu5Ac(a2-3)Gal(b1-4)[Fuc(a1-3)]GlcNAc(b1-3)Gal
In short: as §1

[19] = target: Neu5Ac(a2-3)Gal(b1-4)[Fuc(a1-3)]GlcNAc(b1-3)Gal(b1-4)GlcNAc
In short: as §1

[20] = target: Neu5Ac(a2-3)Gal(b1-4)[Fuc(a1-3)]GlcNAc(b1-3)Gal(b1-4)[Fuc(a1-3)]GlcNAc(b1-3)Gal(b1-4)[Fuc(a1-3)]GlcNAc
In short: as §1

[21] = target: Neu5Ac(a2-3)Gal(b1-4)[Fuc(a1-3)]GlcNAc6S
In short: as §1

[22] = target: Neu5Ac(a2-3)Gal6S(b1-4)GlcNAc
In short: as §1

[23] = target: Neu5Ac(a2-3)Gal6S(b1-4)[Fuc(a1-3)]GlcNAc
In short: as §1

[24] = target: Neu5Ac(a2-3)GalNAc
In short: as §1

[25] = target: Neu5Ac(a2-3)GalNAc(b1-4)GlcNAc
In short: as §1

[26] = target: Neu5Ac(a2-3)[GalNAc(b1-4)]Gal(b1-4)Glc
In short: as §1

[27] = target: Neu5Ac(a2-3)[GalNAc(b1-4)]Gal(b1-4)GlcNAc
In short: as §1

[28] = target: Neu5Ac(a2-3)[Neu5Ac(a2-6)]GalNAc
In short: as §1

[29] = target: Neu5Ac(a2-6)Gal
In short: as §1

[30] = target: Neu5Ac(a2-6)Gal(b1-4)Glc
In short: as §1

[31] = target: Neu5Ac(a2-6)Gal(b1-4)GlcNAc
In short: as §1

[32] = target: Neu5Ac(a2-6)Gal(b1-4)GlcNAc(b1-3)Gal(b1-4)GlcNAc
In short: as §1

[33] = target: Neu5Ac(a2-6)Gal(b1-4)GlcNAc(b1-3)Gal(b1-4)[Fuc(a1-3)]GlcNAc(b1-3)Gal(b1-4)[Fuc(a1-3)]GlcNAc
In short: as §1

[34] = target: Neu5Ac(a2-6)Gal(b1-4)GlcNAc6S
In short: as §1

[35] = target: Neu5Ac(a2-6)GalNAc
In short: as §1

[36] = target: Neu5Ac(a2-6)GalNAc(b1-4)GlcNAc
In short: as §1

[37] = target: Neu5Ac(a2-8)Neu5Ac
In short: as §1

[38] = target: Neu5Ac(a2-8)Neu5Ac(a2-3)Gal(b1-4)Glc
In short: as §1

B1: FaeGad (Escherichia coli) (protein)
chain: WMTGDFNGSVDIGGSITADDYRQKWEWEVGTGLNGFGSVLNDLTNGGTKLTITVTGNKPILLGRTKEAFATPVTSGVDGIPHIAFTDYEGASVELRNPDGETEKGLTYFVLPMKNAEGTKVGSVKVNASYAGALGRGGVTSADGELMSLFAEGSHAIFYGGLPTNVKNSELKGGSAAAARTELFGSLSKNDILGQIQRVNANITSLVNVPGSFNENMAYTDGSVVSVAYALGIANGQTIEATFNQAVTTSTQWSAPLNVAITYY
In the case of B1, the “glycan array binding signal (z-score)” value [1] is reported as -0.464, the “glycan array binding signal (z-score)” value [2] is reported as -0.416 and the “glycan array binding signal (z-score)” value [3] is reported as -0.422. For the same binder, the “glycan array binding signal (z-score)” value [4] was -0.456, the “glycan array binding signal (z-score)” value [5] was -0.205 and the “glycan array binding signal (z-score)” value [6] was -0.412. For the same binder, the “glycan array binding signal (z-score)” value [7] was 0.8, the “glycan array binding signal (z-score)” value [8] was -0.501 and the “glycan array binding signal (z-score)” value [9] was -0.385. The “glycan array binding signal (z-score)” value [10] was -0.389, the “glycan array binding signal (z-score)” value [11] was -0.386 and the “glycan array binding signal (z-score)” value [12] was -0.026. The “glycan array binding signal (z-score)” value [13] was -0.466, the “glycan array binding signal (z-score)” value [14] was -0.49 and the “glycan array binding signal (z-score)” value [15] was 0.139. For the same binder, the “glycan array binding signal (z-score)” value [16] was -0.426, the “glycan array binding signal (z-score)” value [17] was -0.45 and the “glycan array binding signal (z-score)” value [18] was -0.324. For the same binder, the “glycan array binding signal (z-score)” value [19] was -0.35, the “glycan array binding signal (z-score)” value [20] was -0.187 and the “glycan array binding signal (z-score)” value [21] was -0.39. The “glycan array binding signal (z-score)” value [22] was 0.808, the “glycan array binding signal (z-score)” value [23] was -0.253 and the “glycan array binding signal (z-score)” value [24] was -0.452. For the same binder, the “glycan array binding signal (z-score)” value [25] was -0.376, the “glycan array binding signal (z-score)” value [26] was -0.488 and the “glycan array binding signal (z-score)” value [27] was -0.319. For the same binder, the “glycan array binding signal (z-score)” value [28] was -0.465, the “glycan array binding signal (z-score)” value [29] was -0.48 and the “glycan array binding signal (z-score)” value [30] was -0.414. For the same binder, the “glycan array binding signal (z-score)” value [31] was -0.474, the “glycan array binding signal (z-score)” value [32] was -0.289 and the “glycan array binding signal (z-score)” value [33] was -0.414. The “glycan array binding signal (z-score)” value [34] was -0.41, the “glycan array binding signal (z-score)” value [35] was -0.088 and the “glycan array binding signal (z-score)” value [36] was -0.362. For the same binder, the “glycan array binding signal (z-score)” value [37] was -0.344 and the “glycan array binding signal (z-score)” value [38] was -0.319.
